# Test results: PMC4336329 (PLoS ONE, 2015)
# The whole screen tested about 310,000 compounds, of which about 2,200 (0.71%) showed an effect of 50% or more. The effect is printed as a negative number. Some of the results follow. Where a SMILES comes first, the peptide text is derived from it. [ ]: non-standard residue; d: D form. pGlu = O=C1CC[C@@H](C(=O)O)N1; Thz = O=C(O)[C@@H]1CSCN1
# Target: human ether-à-go-go-related gene (hERG) potassium channel (human, UniProt Q12809)
# Test: primary screen, population patch clamp on CHO cells stably expressing hERG
# human ether-à-go-go-related gene (hERG) potassium channel, sequence (Q12809 whole entry, looked up): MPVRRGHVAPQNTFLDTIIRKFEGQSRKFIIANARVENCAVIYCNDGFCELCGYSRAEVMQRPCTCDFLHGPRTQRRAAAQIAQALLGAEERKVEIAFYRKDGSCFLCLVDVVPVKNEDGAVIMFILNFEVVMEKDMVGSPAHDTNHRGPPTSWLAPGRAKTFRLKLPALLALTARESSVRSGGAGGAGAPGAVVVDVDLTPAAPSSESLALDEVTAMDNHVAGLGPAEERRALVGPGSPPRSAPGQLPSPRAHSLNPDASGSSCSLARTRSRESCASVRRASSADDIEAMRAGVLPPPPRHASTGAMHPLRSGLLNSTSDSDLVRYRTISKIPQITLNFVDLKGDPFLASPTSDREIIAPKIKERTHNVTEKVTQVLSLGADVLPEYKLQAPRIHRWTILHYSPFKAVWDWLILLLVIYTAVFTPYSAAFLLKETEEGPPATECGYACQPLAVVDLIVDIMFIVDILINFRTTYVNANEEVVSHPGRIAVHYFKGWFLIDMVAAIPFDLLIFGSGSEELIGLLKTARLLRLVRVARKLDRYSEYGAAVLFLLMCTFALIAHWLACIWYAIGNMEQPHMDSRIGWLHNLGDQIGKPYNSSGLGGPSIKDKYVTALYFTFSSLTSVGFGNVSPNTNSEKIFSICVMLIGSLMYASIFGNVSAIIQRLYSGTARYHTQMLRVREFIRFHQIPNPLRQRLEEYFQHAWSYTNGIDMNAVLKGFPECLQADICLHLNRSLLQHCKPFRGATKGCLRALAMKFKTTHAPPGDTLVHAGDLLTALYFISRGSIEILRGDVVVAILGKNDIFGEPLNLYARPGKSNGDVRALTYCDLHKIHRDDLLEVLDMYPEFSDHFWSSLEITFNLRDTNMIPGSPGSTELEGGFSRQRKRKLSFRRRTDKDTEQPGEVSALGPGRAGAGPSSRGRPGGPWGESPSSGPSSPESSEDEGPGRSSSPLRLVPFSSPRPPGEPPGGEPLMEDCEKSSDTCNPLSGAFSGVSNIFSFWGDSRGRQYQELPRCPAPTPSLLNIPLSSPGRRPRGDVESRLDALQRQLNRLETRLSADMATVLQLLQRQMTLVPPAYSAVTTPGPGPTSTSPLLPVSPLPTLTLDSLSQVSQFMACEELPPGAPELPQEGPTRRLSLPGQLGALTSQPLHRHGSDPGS
row,SMILES,"hERG current change (%, negative = inhibition) at 1uM [%]"
1,COc1cccc(CNS(=O)(=O)c2c(C(=O)N3CCCCCC3)c(C)n(C)c2C)c1,7.52
2,O=S(=O)(NCCSc1ccc(Cl)cc1)c1ccc2c(c1)OCCO2,4.16
3,COCC(C)NC(=O)c1cc2cccc([N+](=O)[O-])c2[nH]1 (stereo not drawn),7.87
4,COc1ccc(-n2c(SCC(=O)C(C)(C)C)nc3c(sc(=S)n3-c3ccccc3)c2=O)c(OC)c1,14.6
5,CC1CN(C(=S)Nc2ccc(SC(F)F)cc2)CC(C)O1 (stereo not drawn),-4.05
6,CC(=O)C1C(c2ccco2)c2c(noc2C)CC1(C)O (stereo not drawn),1.18
7,CC(C)C(=O)Nc1ccnc(-c2cccnc2)n1,2.24
8,COc1cc(NC(=O)C(C)Oc2ccccc2)c(C(=O)O)cc1OC (stereo not drawn),9.7
9,O=C(OCC(=O)N1CCCC1=O)c1nc(Cl)ccc1Cl,11.9
10,Cc1csc(NC(=O)c2nn(C)c(C)c2[N+](=O)[O-])n1,12.8
11,COc1cc(Nc2nc3ccc(Cl)cc3n3cnnc23)cc(OC)c1OC,14.1
12,O=c1cc(/N=C/c2coc3cc(Br)ccc3c2=O)[nH]c(=S)[nH]1,16.6
13,Cc1ccc(CSCC(=O)N2CCCC2)cc1,10.7
14,CC(CCc1ccccc1)NC(=O)CSc1nc(N)cc(N)n1 (stereo not drawn),5.09
15,CCc1nc(Sc2nc(C)cc(C)n2)c2oc3ccccc3c2n1,10.6
16,Cn1nc(-c2ccccn2)nc2c(=O)n(C)c(=O)nc1-2,6.45
17,C[C@H](NC(=O)C1CC(=O)N(c2ccc(F)cc2)C1)C(=O)N1CCCCC1 (stereo partly drawn),6.48
18,O=C(NCc1ccccc1)NC(=O)c1ccccc1F,18.3
19,CC12CCC(C(=O)Nc3ccc(Br)cn3)(OC1=O)C2(C)C (stereo not drawn),12.5

row,SMILES,"hERG current change (%, negative = inhibition) at 1uM [%]"
1,CC(C)n1ncc(N2CCOCC2)c(Cl)c1=O,15
2,CN(CC(=O)Nc1ccccc1C(F)(F)F)Cc1c(O)ccc2ccccc12,14.6
3,C/C(=N\O)c1cc(Cl)ccc1O,13.4
4,CN(C)c1ccc(/C=C(/NC(=O)c2ccccc2)C(=O)N/N=C/c2ccc([N+](=O)[O-])c(O)c2)cc1,2.08
5,COC(=O)COc1ccc(S(=O)(=O)Nc2ccc3c(c2)OCCO3)cc1Cl,13.6
6,COc1ccc(CNC(=O)C2CCCN(S(=O)(=O)c3ccc(F)cc3)C2)cc1 (stereo not drawn),7
7,O=C(Nn1cnnc1)c1ccc(Cl)cc1,12.2
8,CCCn1c(N)c(C(=O)CSc2nnc(-c3ccco3)n2Cc2ccccc2)c(=O)[nH]c1=O,-4.53
9,COc1ccc(C2=C(CN(C)C)C(c3ccccc3)c3ccccc3O2)cc1.Cl (stereo not drawn),15.1
10,O=C(NCCCn1ccnc1)/C(=C\c1ccccc1Cl)NC(=O)c1ccccc1,6.1
11,COc1cccc(CNc2ccc(N3CCC(C)CC3)cc2)c1OC,12.2
12,O=C(COC(=O)c1cccnc1Cl)c1ccc(F)cc1,13.5
13,COc1ccc(NC2=NCC(C)S2)cc1 (stereo not drawn),2
14,O=C(NC1(C(F)(F)F)NC(=O)N(Cc2cccnc2)C1=O)c1ccccc1Cl (stereo not drawn),0.26
15,C/C(=N\NC(=O)c1ccccc1F)c1cccc(NC(=O)c2ccc(C)cc2)c1,11
16,Cc1cccc(C(=O)OCC(=O)NC(=O)Cc2ccccc2)c1O,12.1
17,O=C(Nc1nccs1)c1ccc(-c2ccccc2Cl)o1,11.8
18,COc1ccccc1CCNC(=O)C(=O)c1cn(CC(=O)N2CCOCC2)c2ccccc12,-0.332
19,O=C(c1cccs1)N1CCN(c2nnc(-c3ccccc3)c3ccccc23)CC1,-15

row,SMILES,"hERG current change (%, negative = inhibition) at 1uM [%]"
1,Cc1cc2ncc(-c3cccs3)nc2cc1C,13.6
2,O=C1CC[C@@H](C(=O)N2CSC[C@H]2C(=O)O)N1 ([pGlu]-[Thz]-OH),17.3
3,COc1cc(/C=N/N2CCCCC2)cc([N+](=O)[O-])c1O,14.7
4,CN=C1SC(CC(=O)Nc2ccc(F)cc2F)C(=O)N1/N=C/c1ccc(OC(F)F)c(OC)c1 (stereo not drawn),8.6
5,CC(=O)Nc1ccccc1NC(=O)C/C(C)=N/NC(=O)C1CCCCC1,13.6
6,O=C(Cc1cccs1)Nc1nnc(CCc2ccccc2)s1,11.9
7,COc1ccccc1NC(=O)CCC(=O)OCc1ccc([N+](=O)[O-])cc1,-0.782
8,CC(C)=C1C2CCC1C1C(=O)N(NC(=O)COc3ccc(C(C)(C)C)cc3)C(=O)C21 (stereo not drawn),13.6
9,COc1ccc(OC)c(NC(=O)CSc2nnc(-c3ccncc3)s2)c1,16.5
10,Cc1ccccc1-c1nc(CN2CCC(C(=O)NCCCN3CC(C)CC(C)C3)CC2)c(C)o1 (stereo not drawn),1.36
11,Cc1ccc(-c2nnc(OCCN3CCOCC3)c3ccccc23)cc1,-3.96
12,COc1ccc2nc(/N=C(\N)NC(=O)Nc3ccccc3)nc(C)c2c1,-11.5
13,CCNC(=O)/C(=C\c1ccc2c(c1)OCO2)NC(=O)c1ccc(Br)cc1,-48.9
14,COc1ccc(OC)c(S(=O)(=O)Nc2cccc(F)c2)c1,-1.72
15,COC(=O)c1ccccc1OP1(=O)COc2ccccc2OC1,17.6
16,S=c1[nH]nc(CCc2ccc(Cl)cc2)o1,-3.05
17,Cc1c(C(=O)Nc2ccc3c(c2)OCCO3)sc2nc(-c3ccccc3)cn12,2.95
18,CCOC(=O)c1ccccc1NC(=O)/C=C/c1cc(OC)c(OC)c(OC)c1,-11.5
19,COc1cc(C2c3c(oc4ccccc4c3=O)C(=O)N2c2nccs2)ccc1O (stereo not drawn),8.54
